{"source": "paper PMC9911399", "about": "“Two distinct binding modes provide the RNA-binding protein RbFox with extraordinary sequence specificity”", "binders": {"B1": {"name": "AGUUUAC (DNA:RNA)", "RNA": "GGGAGACCGGAAUUCAGAUUGUCCAGUUUACUUAAAUCCCGUCGUAGCCACCA", "DNA 1": "CAATCTGAATTCCGGTCTCCC", "DNA 2": "TGGTGGCTACGACGGGATT"}, "B2": {"name": "CAGCAGU (DNA:RNA)", "RNA": "GGGAGACCGGAAUUCAGAUUGUCCCAGCAGUUUAAAUCCCGUCGUAGCCACCA", "DNA 1": "CAATCTGAATTCCGGTCTCCC", "DNA 2": "TGGTGGCTACGACGGGATT"}, "B3": {"name": "AUACUCU (DNA:RNA)", "RNA": "B1 RNA with G26U, U27A, U28C, A30C, C31U", "DNA 1": "CAATCTGAATTCCGGTCTCCC", "DNA 2": "TGGTGGCTACGACGGGATT"}, "B4": {"name": "ACAAUUU (DNA:RNA)", "RNA": "B1 RNA with G26C, U27A, U28A, A30U, C31U", "DNA 1": "CAATCTGAATTCCGGTCTCCC", "DNA 2": "TGGTGGCTACGACGGGATT"}, "B5": {"name": "GUCGCUA (DNA:RNA)", "RNA": "GGGAGACCGGAAUUCAGAUUGUCCGUCGCUAUUAAAUCCCGUCGUAGCCACCA", "DNA 1": "CAATCTGAATTCCGGTCTCCC", "DNA 2": "TGGTGGCTACGACGGGATT"}, "B6": {"name": "AUGGCAU (DNA:RNA)", "RNA": "B5 RNA with G25A, C27G, U30A, A31U", "DNA 1": "CAATCTGAATTCCGGTCTCCC", "DNA 2": "TGGTGGCTACGACGGGATT"}, "B7": {"name": "CCUCGGU (DNA:RNA)", "RNA": "B2 RNA with A26C, G27U, A29G", "DNA 1": "CAATCTGAATTCCGGTCTCCC", "DNA 2": "TGGTGGCTACGACGGGATT"}, "B8": {"name": "AGUAGCC (DNA:RNA)", "RNA": "B1 RNA with U28A, U29G, A30C", "DNA 1": "CAATCTGAATTCCGGTCTCCC", "DNA 2": "TGGTGGCTACGACGGGATT"}, "B9": {"name": "CUGAAGC (DNA:RNA)", "RNA": "B2 RNA with A26U, C28A, U31C", "DNA 1": "CAATCTGAATTCCGGTCTCCC", "DNA 2": "TGGTGGCTACGACGGGATT"}, "B10": {"name": "AUCACCC (DNA:RNA)", "RNA": "B5 RNA with G25A, G28A, U30C, A31C", "DNA 1": "CAATCTGAATTCCGGTCTCCC", "DNA 2": "TGGTGGCTACGACGGGATT"}, "B11": {"name": "GAUGCAU (DNA:RNA)", "RNA": "B5 RNA with U26A, C27U, U30A, A31U", "DNA 1": "CAATCTGAATTCCGGTCTCCC", "DNA 2": "TGGTGGCTACGACGGGATT"}, "B12": {"name": "ACAUGCU (DNA:RNA)", "RNA": "B1 RNA with G26C, U27A, U29G, A30C, C31U", "DNA 1": "CAATCTGAATTCCGGTCTCCC", "DNA 2": "TGGTGGCTACGACGGGATT"}, "B13": {"name": "UGUCGUG (DNA:RNA)", "RNA": "B1 RNA with A25U, U28C, U29G, A30U, C31G", "DNA 1": "CAATCTGAATTCCGGTCTCCC", "DNA 2": "TGGTGGCTACGACGGGATT"}, "B14": {"name": "ACUUACC (DNA:RNA)", "RNA": "B1 RNA with G26C, U29A, A30C", "DNA 1": "CAATCTGAATTCCGGTCTCCC", "DNA 2": "TGGTGGCTACGACGGGATT"}, "B15": {"name": "UUAUCAU (DNA:RNA)", "RNA": "B1 RNA with A25U, G26U, U27A, U29C, C31U", "DNA 1": "CAATCTGAATTCCGGTCTCCC", "DNA 2": "TGGTGGCTACGACGGGATT"}, "B16": {"name": "GUGUUCG (DNA:RNA)", "RNA": "B1 RNA with A25G, G26U, U27G, A30C, C31G", "DNA 1": "CAATCTGAATTCCGGTCTCCC", "DNA 2": "TGGTGGCTACGACGGGATT"}, "B17": {"name": "CAACCAA (DNA:RNA)", "RNA": "B2 RNA with G27A, A29C, G30A, U31A", "DNA 1": "CAATCTGAATTCCGGTCTCCC", "DNA 2": "TGGTGGCTACGACGGGATT"}, "B18": {"name": "UGUCUUU (DNA:RNA)", "RNA": "B1 RNA with A25U, U28C, A30U, C31U", "DNA 1": "CAATCTGAATTCCGGTCTCCC", "DNA 2": "TGGTGGCTACGACGGGATT"}, "B19": {"name": "GGAUACC (DNA:RNA)", "RNA": "B1 RNA with A25G, U27A, U29A, A30C", "DNA 1": "CAATCTGAATTCCGGTCTCCC", "DNA 2": "TGGTGGCTACGACGGGATT"}, "B20": {"name": "UCUGGCA (DNA:RNA)", "RNA": "B5 RNA with G25U, U26C, C27U, C29G, U30C", "DNA 1": "CAATCTGAATTCCGGTCTCCC", "DNA 2": "TGGTGGCTACGACGGGATT"}, "B21": {"name": "GCAGCUA (DNA:RNA)", "RNA": "B5 RNA with U26C, C27A", "DNA 1": "CAATCTGAATTCCGGTCTCCC", "DNA 2": "TGGTGGCTACGACGGGATT"}, "B22": {"name": "AUGUGUA (DNA:RNA)", "RNA": "B5 RNA with G25A, C27G, G28U, C29G", "DNA 1": "CAATCTGAATTCCGGTCTCCC", "DNA 2": "TGGTGGCTACGACGGGATT"}, "B23": {"name": "GGACUGC (DNA:RNA)", "RNA": "B1 RNA with A25G, U27A, U28C, A30G", "DNA 1": "CAATCTGAATTCCGGTCTCCC", "DNA 2": "TGGTGGCTACGACGGGATT"}, "B24": {"name": "CCGGUAA (DNA:RNA)", "RNA": "B1 RNA with A25C, G26C, U27G, U28G, C31A", "DNA 1": "CAATCTGAATTCCGGTCTCCC", "DNA 2": "TGGTGGCTACGACGGGATT"}, "B25": {"name": "GUUCUGG (DNA:RNA)", "RNA": "B1 RNA with A25G, G26U, U28C, A30G, C31G", "DNA 1": "CAATCTGAATTCCGGTCTCCC", "DNA 2": "TGGTGGCTACGACGGGATT"}, "B26": {"name": "GGAAGUU (DNA:RNA)", "RNA": "B5 RNA with U26G, C27A, G28A, C29G, A31U", "DNA 1": "CAATCTGAATTCCGGTCTCCC", "DNA 2": "TGGTGGCTACGACGGGATT"}, "B27": {"name": "CCUCCUU (DNA:RNA)", "RNA": "B2 RNA with A26C, G27U, A29C, G30U", "DNA 1": "CAATCTGAATTCCGGTCTCCC", "DNA 2": "TGGTGGCTACGACGGGATT"}, "B28": {"name": "GUUCGUC (DNA:RNA)", "RNA": "B5 RNA with C27U, G28C, C29G, A31C", "DNA 1": "CAATCTGAATTCCGGTCTCCC", "DNA 2": "TGGTGGCTACGACGGGATT"}, "B29": {"name": "CGUUCCU (DNA:RNA)", "RNA": "B1 RNA with A25C, U29C, A30C, C31U", "DNA 1": "CAATCTGAATTCCGGTCTCCC", "DNA 2": "TGGTGGCTACGACGGGATT"}, "B30": {"name": "GCGCGGA (DNA:RNA)", "RNA": "B2 RNA with C25G, A26C, A29G, U31A", "DNA 1": "CAATCTGAATTCCGGTCTCCC", "DNA 2": "TGGTGGCTACGACGGGATT"}, "B31": {"name": "CAAACGC (DNA:RNA)", "RNA": "B2 RNA with G27A, C28A, A29C, U31C", "DNA 1": "CAATCTGAATTCCGGTCTCCC", "DNA 2": "TGGTGGCTACGACGGGATT"}}, "note": "Numbering of substitutions follows the chain as printed; changes in the protein carry UniProt numbers. This is one part of the list."}
{"molecular_target": "T1, RBFOX1 RRM (Homo sapiens, UniProt Q9NWB1 109-208)", "T1 sequence": "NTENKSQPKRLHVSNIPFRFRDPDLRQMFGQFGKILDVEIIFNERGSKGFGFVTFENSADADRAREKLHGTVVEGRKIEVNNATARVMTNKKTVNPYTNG", "assay": "EMSA; HiTS-Eq, 1 nM pool, 10 min; buffer printed only for the single-RNA assays: 10 mM Tris pH 7.5, 150 mM NaCl, 3.4 mM EDTA, 0.001% NP-40, 30 C", "details": "tags: His6 N-terminal (pET28a); label: 5' 32P", "outline": "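Purified RbFox RRM, wild type or mutant, was incubated for 10 min in 50 µL with 1 nM of a 5′-radiolabelled RNA pool carrying 7 randomized nucleotides, whose flanks were annealed to DNA oligonucleotides, over a series of increasing protein concentrations. Unbound RNA was resolved on 8% native PAGE, cut out, reverse-transcribed, barcoded by PCR and sequenced on an Illumina HiSeq 2500. Relative association constants were derived from changes in read counts for each RNA species versus the control reaction and normalised to the cognate motif.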"}
{"binder": "B1", "binding signal": "0.00577 KA relative to UGCAUGU"}
{"binder": "B2", "binding signal": "0.00674 KA relative to UGCAUGU"}
{"binder": "B3", "binding signal": "0.000377 KA relative to UGCAUGU"}
{"binder": "B4", "binding signal": "0.000785 KA relative to UGCAUGU"}
{"binder": "B5", "binding signal": "0.0101 KA relative to UGCAUGU"}
{"binder": "B6", "binding signal": "0.0152 KA relative to UGCAUGU"}
{"binder": "B7", "binding signal": "0.00827 KA relative to UGCAUGU"}
{"binder": "B8", "binding signal": "0.0103 KA relative to UGCAUGU"}
{"binder": "B9", "binding signal": "0.0135 KA relative to UGCAUGU"}
{"binder": "B10", "binding signal": "0.00275 KA relative to UGCAUGU"}
{"binder": "B11", "binding signal": "0.0224 KA relative to UGCAUGU"}
{"binder": "B12", "binding signal": "0.0044 KA relative to UGCAUGU"}
{"binder": "B13", "binding signal": "0.0277 KA relative to UGCAUGU"}
{"binder": "B14", "binding signal": "0.00118 KA relative to UGCAUGU"}
{"binder": "B15", "binding signal": "0.00318 KA relative to UGCAUGU"}
{"binder": "B16", "binding signal": "0.0247 KA relative to UGCAUGU"}
{"binder": "B17", "binding signal": "0.00159 KA relative to UGCAUGU"}
{"binder": "B18", "binding signal": "0.018 KA relative to UGCAUGU"}
{"binder": "B19", "binding signal": "0.00541 KA relative to UGCAUGU"}
{"binder": "B20", "binding signal": "0.0191 KA relative to UGCAUGU"}
{"binder": "B21", "binding signal": "0.00719 KA relative to UGCAUGU"}
{"binder": "B22", "binding signal": "0.0114 KA relative to UGCAUGU"}
{"binder": "B23", "binding signal": "0.0247 KA relative to UGCAUGU"}
{"binder": "B24", "binding signal": "0.00723 KA relative to UGCAUGU"}
{"binder": "B25", "binding signal": "0.0174 KA relative to UGCAUGU"}
{"binder": "B26", "binding signal": "0.0208 KA relative to UGCAUGU"}
{"binder": "B27", "binding signal": "0.00445 KA relative to UGCAUGU"}
{"binder": "B28", "binding signal": "0.0209 KA relative to UGCAUGU"}
{"binder": "B29", "binding signal": "0.00682 KA relative to UGCAUGU"}
{"binder": "B30", "binding signal": "0.0204 KA relative to UGCAUGU"}
{"binder": "B31", "binding signal": "0.00297 KA relative to UGCAUGU"}
